# Values joined by “and” are separate entries in the source; they are usually repeats but may differ in a detail not shown here. Equal values may be shown once. Screen size: about 350,000 compounds; about 31,000 (8.9%) were called active. The inconclusive results got no clear call from the source; some entries with a clear call stand among them for comparison. Calls follow the shape of the dose curve; as a rule, active = well fitted inhibition curve with a large enough effect; inconclusive = small, poorly fitted or top-dose-only effect; inactive = no such curve, though single readings can be large or run the other way. Potencies beside an inconclusive call are fits to weak or partial responses and may not hold up. Where a structure was tested more than once in an assay, its records may differ in their call. Where a SMILES comes first, the peptide text is derived from it. [ ]: non-standard residue; d: D form. The star is where a group is joined. ξ: configuration not given here. ξArg(NO2) = N=C(NCCCC(N)C(=O)O)N[N+](=O)[O-]; Bz = O=C(c1ccccc1)*
# Target: Histone-lysine N-methyltransferase EHMT2 (Homo sapiens) (UniProt Q96KQ7)
# UniProt Q96KQ7, sequence (Q96KQ7 whole entry, looked up): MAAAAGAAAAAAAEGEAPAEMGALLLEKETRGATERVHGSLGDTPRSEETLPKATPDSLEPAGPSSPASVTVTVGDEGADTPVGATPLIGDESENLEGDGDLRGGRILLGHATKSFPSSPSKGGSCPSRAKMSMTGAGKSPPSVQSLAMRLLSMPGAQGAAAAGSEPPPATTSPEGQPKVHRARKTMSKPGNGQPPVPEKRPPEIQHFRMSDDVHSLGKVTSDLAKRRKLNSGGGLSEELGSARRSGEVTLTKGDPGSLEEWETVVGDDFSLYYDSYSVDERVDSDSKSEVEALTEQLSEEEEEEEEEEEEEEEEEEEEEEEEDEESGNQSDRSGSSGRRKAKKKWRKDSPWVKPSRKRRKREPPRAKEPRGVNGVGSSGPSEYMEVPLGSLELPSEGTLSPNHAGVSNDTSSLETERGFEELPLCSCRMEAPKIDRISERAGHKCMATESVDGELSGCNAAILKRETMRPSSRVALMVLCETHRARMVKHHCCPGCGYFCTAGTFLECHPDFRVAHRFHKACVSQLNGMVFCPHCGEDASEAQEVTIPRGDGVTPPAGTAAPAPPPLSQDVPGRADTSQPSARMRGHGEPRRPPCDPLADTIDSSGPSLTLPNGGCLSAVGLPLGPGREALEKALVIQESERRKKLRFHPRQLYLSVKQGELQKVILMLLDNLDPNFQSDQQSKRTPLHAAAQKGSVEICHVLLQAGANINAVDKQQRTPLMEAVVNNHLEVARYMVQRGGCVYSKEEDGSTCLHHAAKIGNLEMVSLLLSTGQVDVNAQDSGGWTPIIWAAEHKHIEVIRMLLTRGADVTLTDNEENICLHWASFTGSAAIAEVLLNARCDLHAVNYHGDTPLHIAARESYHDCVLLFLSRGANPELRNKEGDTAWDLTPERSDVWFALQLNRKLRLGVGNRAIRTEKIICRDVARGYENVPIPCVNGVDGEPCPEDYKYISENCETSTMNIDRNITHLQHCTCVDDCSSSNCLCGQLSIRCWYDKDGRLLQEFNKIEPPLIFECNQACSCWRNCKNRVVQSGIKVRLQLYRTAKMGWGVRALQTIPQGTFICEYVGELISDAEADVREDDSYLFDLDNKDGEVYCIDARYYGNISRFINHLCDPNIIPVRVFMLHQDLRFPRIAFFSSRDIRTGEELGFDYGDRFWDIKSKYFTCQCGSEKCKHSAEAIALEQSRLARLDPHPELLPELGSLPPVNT
# Assay: qHTS Assay for Inhibitors of Histone Lysine Methyltransferase G9a; also: nearly all actives have a fitted effect of over 75% in size
# Details: G9a H3K9 monomethylation, AlphaScreen, 2 h; activity, negative = inhibition: at 59 µM (top of the series) unless noted
# In short: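 G9a (20 nM) preincubated 15 min RT with compounds, then 500 nM biotinylated H3K9 peptide and 20 uM SAM added; 2 h RT reaction. Monomethyl-H3K9 product detected by AlphaScreen with anti-H3K9me1 antibody, streptavidin donor and anti-rabbit IgG acceptor beads.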
# % is scaled to controls: 0 for no effect and ±100 for the full control effect; potency is read from the fitted curve at half-maximal effect; tags tell the direction and shape of the fitted curve.
SMILES,Potency,"activity, negative = inhibition"
COc1ccc2c(c1O)-c1cc(O)cc3c1[C@@H](C2)N(C)CC3,"inconclusive: 15.8 µM [inhibitor, single point]",–
COC(=O)CCCC(NC(=S)N1CC2C[C@@H](C1)Cn1c2cccc1=O)C(=O)OC (some centres not stated),"inconclusive: 0.794 µM [inhibitor, partial curve, poor fit]",–
O=C(Nc1ccc2c(c1)OCO2)c1cccn(Cc2ccccc2)c1=O,–,inactive: -30.7%
O=S(=O)(Nc1ccc2[nH]ncc2c1)c1ccccc1Cl,active: 22.4 µM,–
CN1CCC(c2c[nH]c3ccccc23)C1 (configuration not stated),–,inactive: -39.2%
Nc1ccc(N)cc1,active: 12.6 µM,–
C[n+]1c(-c2ccccc2)cc(-c2ccc(Cl)cc2)cc1-c1ccccc1,"inconclusive: 35.5 µM [inhibitor, partial curve, poor fit]",–
N/C(=N\[N+](=O)[O-])NCCCC(NC(=O)CNC(=O)c1ccccc1)C(=O)O (configuration not stated) (Bz-Gly-[ξArg(NO2)]-OH),"inconclusive: 44.7 µM [inhibitor, partial curve, poor fit]",–
Cc1c(C(=O)Nc2ccccc2)c2cc(O)ccc2n1Cc1ccccc1,"inconclusive: 39.8 µM [inhibitor, partial curve, poor fit]",–
CC1CCN(C(=O)c2ccc(N3CC4CC(C3)c3cccc(=O)n3C4)c([N+](=O)[O-])c2)CC1 (configuration not stated),"inconclusive: 89.1 µM [inhibitor, single point]",–
Clc1ccc(N2CC3CCC(C2)N3)nn1,active: 35.5 µM and active: 23.8 µM,–
CC(C)C[C@H](NC(=O)C1CC(=O)N(c2ccc3c(c2)OCO3)C1)C(=O)NCc1ccco1 (some centres not stated),"inconclusive: 39.8 µM [inhibitor, partial curve, poor fit]",–
COc1ccc([N+](=O)[O-])cc1N=Cc1c(O)n(CCc2ccccc2)c(=O)n(C(C)C)c1=O,"inconclusive: 25.1 µM [inhibitor, single point]",–
O=c1[nH]c(=O)n(-c2ccc(Cl)cc2)c(O)c1C=NCCN1CCCCC1,"inconclusive: 39.8 µM [inhibitor, single point]",–
C/C=C/C/C=C/CCC(=O)[C@H]1O[C@H]1C(N)=O,"inconclusive: 20 µM [inhibitor, single point]",–
O=C(CN1C(=O)CN=C(c2ccccc2Cl)c2cc(Cl)ccc21)NCc1ccco1,"inconclusive: 35.5 µM [inhibitor, single point]",–
COC(=O)C1=C(N)Oc2c(c(=O)oc3ccccc23)[C@]12C(=O)N(C)c1ccccc12,"inconclusive: 70.8 µM [inhibitor, partial curve, poor fit]",–
CC[N+](C)(CC)CCOC(=O)C(O)(c1ccccc1)c1ccccc1,–,inactive: -36.6% [at 12.7 µM]
CC(C)(C)c1ccc(CSc2cnn(C(C)(C)C)c(=O)c2Cl)cc1,"inconclusive: 1.41 µM [inhibitor, single point]",–
O=C1N=c2ccccc2=C/C1=C\c1c(O)[nH]c(=S)[nH]c1=O,active: 25.1 µM,–
Nc1ccc(C2(c3ccc(N)cc3)CN3CCC2CC3)cc1,active: 5.62 µM,–
COC(=O)CC1=C(C(=O)OC)C2(C(=O)Nc3c(C)cccc32)C(C#N)=C(N)O1 (configuration not stated),"inconclusive: 1.41 µM [inhibitor, partial curve, poor fit]",–
COc1ccc(NC2=NC(C)(C)CS2)cc1,–,inconclusive: -71% [inhibitor]

SMILES,Potency,"activity, negative = inhibition"
Nc1ccc(CCN2CCN(c3cccc(C(F)(F)F)c3)CC2)cc1,active: 39.8 µM,–
CCOc1ccccc1CN1CCN(S(=O)(=O)CC)CC1,active: 12.6 µM,–
Cn1c(O)c(C(c2ccncc2)c2c(O)n(C)c(=S)n(C)c2=O)c(=O)n(C)c1=S,"inconclusive: 2.82 µM [inhibitor, partial curve, poor fit]",–
O=C(CN1C(=O)S/C(=C\C=C\c2ccccc2)C1=O)Nc1ccccc1C(=O)O,"inconclusive: 39.8 µM [inhibitor, single point]",–
Cc1ccc(-n2c(O)c(C=Nc3ccc(S(=O)(=O)N(C)C)cc3)c(=O)[nH]c2=O)cc1,"inconclusive: 79.4 µM [inhibitor, single point]",–
N#Cc1ccc(NC(=O)CN2CCCCCC2)cc1Cl,–,inactive: -17.7% [at 102 µM]
O=[N+]([O-])c1ccc(S(=O)(=O)NCC(c2ccco2)N2CCc3ccccc3C2)cc1 (configuration not stated),"inconclusive: 39.8 µM [inhibitor, partial curve, poor fit]",–
O=C1NC(=O)C(CCc2ccncc2)(Cc2ccc3c(c2)OCO3)C(=O)N1CCc1ccccc1 (configuration not stated),"inconclusive: 11.2 µM [inhibitor, partial curve]",–
O=C(O)C(O)(c1ccccc1)C1CCCCC1 (configuration not stated),–,inactive: 4.45% [at 102 µM]
COC(=O)c1cn(CCOc2ccccc2)c2ccccc12,–,inactive: 70.7% [at 102 µM]
NC(C(=O)O)c1cc(=O)[nH]o1 (configuration not stated),inactive,–
CC(C)c1ccc(N2C(=O)NC(=O)/C(=C/C=C/c3ccco3)C2=O)cc1,active: 50.1 µM,–
CCN1CCN(C(=O)COc2cc(=O)n(CC)c3ccccc23)CC1,"inconclusive: 50.1 µM [inhibitor, partial curve, poor fit]",–
CCCCCCNC(=O)N[C@@H](Cc1ccc(O)cc1)C(=O)NCCC[C@H]1CN2C(=NC[C@H]2C)N1CC1CCC1,"inconclusive: 7.94 µM [inhibitor, single point]",–
CC(=O)N(C1=NCCCS1)c1ccccc1F,–,inactive: 1.9% [at 102 µM]
CN1CCC(OC(=O)c2ccccc2)CC1,"inconclusive: 79.4 µM [inhibitor, single point]",–
COc1ccccc1NC(=O)c1cc[n+](C)cc1,active: 35.5 µM,–
Cc1cc(/C=C2\C(=O)NC(=O)N(c3ccccc3F)C2=O)c(C)n1-c1cc(C(=O)O)cc(C(=O)O)c1,active: 10 µM,–
Brc1ccc2c(c1)C(OC1CN3CCC1CC3)c1ccccc1CS2 (configuration not stated),active: 15.8 µM,–
Cc1cccc(C2=NN(c3ccc(Br)cc3)[C@@H](C(=O)N3CCOC3=O)[C@@H]2c2ccc([N+](=O)[O-])cc2)c1,"inconclusive: 12.6 µM [inhibitor, partial curve, poor fit]",–
CC(=O)Nc1cc([As](=O)(O)O)ccc1O,inactive,–
COc1ccc(C2NCc3ccc4c(c3-n3cccc32)OCO4)cc1OC (configuration not stated),–,inactive: 0.908% [at 12.7 µM]
O=C(c1ccc(N2CCCCC2)c([N+](=O)[O-])c1)N1CCC2(CC1)OCCO2,"inconclusive: 50.1 µM [inhibitor, partial curve]",–

SMILES,Potency,"activity, negative = inhibition"
C[n+]1cccc(C(=O)N/N=C/c2ccc3c(c2)OCO3)c1,"inconclusive: 79.4 µM [inhibitor, partial curve, poor fit]",–
CC(=O)[O][Hg][c]1ccccc1,–,inconclusive: -123% [inhibitor] [at 2.33 µM]
CC(C)CCNC(=O)CN1C(=O)CN=C(c2ccccc2)c2ccccc21,–,inactive: -7.99% [at 12.7 µM]
ClC1=C(Cl)C2(Cl)C(CBr)CC1(Cl)C2(Cl)Cl (configuration not stated),–,inactive: 0.139% [at 12.7 µM]
Cc1ccc(-n2c(/C=C/c3ccc(Br)s3)nc3ccccc3c2=O)cc1C,"inconclusive: 7.94 µM [inhibitor, partial curve, poor fit]",–
O=c1[nH]c2ccccc2n1C1CCN(CCCC(c2ccc(F)cc2)c2ccc(F)cc2)CC1,–,inactive: 25.8% [at 12.7 µM]
O=C1NC(=O)N(c2cccc(Br)c2)C(=O)/C1=C/c1ccsc1,active: 10 µM,–
N#CC(C#N)=NNc1ccc([N+](=O)[O-])cc1,active: 31.6 µM,–
CCOc1ccc(-c2c(C)n(-c3ccc(OCC)cc3)c3[n+]2CCCCC3)cc1,"inconclusive: 50.1 µM [inhibitor, partial curve, poor fit]",–
CC1CCCCN1C(=O)Cn1cc(C=C2C(=O)N(C)C(=O)N(C)C2=O)c2ccccc21 (configuration not stated),"inconclusive: 8.91 µM [inhibitor, partial curve, poor fit]",–
O=C1NC(=O)N(Cc2ccc(F)cc2)C(=O)/C1=C\C=C\c1ccco1,active: 39.8 µM,–
CCSc1cc(C2C(C#N)=C(N)Oc3n[nH]c(C)c32)c(C)o1 (configuration not stated),"inconclusive: 3.16 µM [inhibitor, partial curve, poor fit]",–
CCCCC/C=C\C/C=C\C/C=C\C/C=C\CCCC(=O)O,inactive and active: 15.8 µM,–
CC12C=CC(=O)C=C1CCC1C2=CCC2(C)C1CC[C@@H]2C(=O)CN1CCN(c2cc(N3CCCC3)nc(N3CCCC3)n2)CC1 (some centres not stated),active: 12.6 µM,–
Cc1cnc[nH]1,–,inactive: 6.42% [at 0.501 µM]
NC(N)=N/N=C/c1ccc(N2CCOCC2)cc1,"inconclusive: 89.1 µM [inhibitor, single point]",–
Cc1cc(NC(=O)c2cc(-c3cccc(Cl)c3)on2)nn1Cc1ccc(Cl)cc1,"inconclusive: 31.6 µM [inhibitor, single point]",–
Cc1ccc(NC(=O)N(Cc2ccc3c(c2)OCO3)C2CCN(Cc3ccccc3)CC2)cc1F,"inconclusive: 28.2 µM [inhibitor, single point]",–
O=[N+]([O-])c1ccc(N2CCCC2)c(F)c1Br,"inconclusive: 2.82 µM [inhibitor, partial curve, poor fit]",–
O=C(/C=C/c1ccc(Cl)cc1)NC(=S)N1C[C@H]2C[C@H](C1)c1cccc(=O)n1C2,active: 17.8 µM,–
C/C=C(\C)C(=O)N[C@@H](c1ccccc1)[C@@H](O)C(=O)O[C@H]1C[C@@]2(O)[C@@H](OC(=O)c3ccccc3)C3[C@](C)(C(=O)[C@H](OC(C)=O)C(=C1C)C2(C)C)[C@@H](O)C[C@H]1OC[C@@]31OC(C)=O (some centres not stated),"inconclusive: 28.2 µM [inhibitor, single point]",–

# Source: PubChem BioAssay AID504332 (National Center for Advancing Translational Sciences (NCATS), 2011)
